This is an account of results in the supplement of paper PMC11417369.

The other results are listed elsewhere or left out.

For the test, the system named is PfSIP2 AP2 domain 1 (GST-tagged). Briefly: gcPBM binding intensity (ln(normalized median fluorescence intensity)); higher = stronger DNA binding. The essentials: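 After 1 h on an Agilent 4 × 180k array of primer-extended double-stranded 36-bp intergenic genomic probes and negative controls, bound GST-tagged P. falciparum DNA-binding domains were detected with Alexa488 anti-GST antibody and scanned at 488 nm. The domains had been expressed in E. coli, and binding took place in 1× PBS with 1% milk, 0.2 mg/ml BSA, 0.5% salmon testes DNA and 0.03% Triton X-100. Binding intensity is the highest Masliner-normalised natural-log median intensity across replicate spots of either probe orientation.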
As for “TTATTTACAAAACAAATCAAAATATCCAAAAGAATA [CACACA_negctrl_site1789]”, the “gcPBM binding intensity (ln)” value stood at 6.61.

As for “GAAATTACTTTATAAACACACATTTATTTTATTTTA [CACACA_site7007]”, the “gcPBM binding intensity (ln)” value came to 6.91. Next, “GGCATATATATATGCACACATACATATATACATGTG [CACACA_site3859]”: 7.34; “TACACATACAGACATACACACATACCCATATACTCA [CACACA_site5037]”: 7.21. The same measure for “TCATATTTATATAAATGTACTTAATTGGTTTCTTTA [XGTACX_site7848]”: 6.59. As to “ATGTTATTAATAATTGCACACATTTTTTTTTTTTTT [CACACA_site3920]”, the “gcPBM binding intensity (ln)” value is 7.56.

As to “AGATTGTAAGTAAACACACACACATATATATGTATA [CACACA_site675]”, the “gcPBM binding intensity (ln)” value amounted to 6.96. The same measure for “TTTGTATTAAAAAAAAAAAAAAAAAAAATGAATAAA [TGCATGCA_negctrl_site292]”: 6.71; for “ATAACGGAAAAAAAAAGTACATGATATAAACATGAA [XGTACX_site8428]”: 6.91. The same measure for “TTTTTTTTTTTTTTTTTTTTTTTTCATTTGATATTA [TGCATGCA_negctrl_site112]”: 6.97; for “TTATTTATTCTATGTGCATGTTATTTTTTTTTTTCG [TGCATGCA_site262]”: 7.6. The same measure for “AAAAATAAGATATATACACACATATAAATATAAATA [CACACA_site7396]”: 6.82. “TATATATATATATGTGGTACATAAAATTATTATTTT [XGTACX_site4554]”: the “gcPBM binding intensity (ln)” value is 9.55. The same measure for “ATAAAATTATCTACATGTACTCATATATATTTGTTT [XGTACX_site5911]”: 7.17; for “AGAGAGAAAGTTATAACATGCAACAATTTTTAGAAG [TGCATGCA_site1]”: 6.97; for “CTTTAAACCCTGAACACACACAAATACACCCAAAAA [CACACA_site4297]”: 7.39. The same measure for “TTTTTATGTGTATATTATTACATTTACATCTTTAAC [CACACA_negctrl_site1676]”: 6.88; for “ACAAGACAACAAGGAAGTACTCATAAATATATTTGG [XGTACX_site1423]”: 6.98; for “CTCACATATATATATAGTACAATTTTTTTTTTTTTT [XGTACX_site5999]”: 7.28.

Regarding “ATGTAGAATTGTAAATGTACATGAAACACATATTCA [XGTACX_site3436]”, the “gcPBM binding intensity (ln)” value came to 6.94. Consider “AAGAAAAATACTACGTGTACCAAACTTCCTACCAAC [XGTACX_site1426]”, for which the “gcPBM binding intensity (ln)” value stood at 6.82.

On to “TATATATATATATTATGTACATATAAATATATTTTT [XGTACX_site1509]”, for which the “gcPBM binding intensity (ln)” value amounted to 9.46.

With “TGTAAATATAAAAGATAATGATAAAAGGGACATTTT [CACACA_negctrl_site661]”, the “gcPBM binding intensity (ln)” value was 6.74. As to “AATATATATATGTGTACACATCCAAAATAGGCATAC [CACACA_site5705]”, the “gcPBM binding intensity (ln)” value is 7.49. Consider “ATCTATATTATAATAACACACATATATTATAGTATA [CACACA_site6330]”, for which the “gcPBM binding intensity (ln)” value turned out to be 7.02. Next, “ATATATATATAAATATGTACATATTTATATATGAAT [XGTACX_site3220]”: 8.51; “AATATATATTTATGTACACACTCCAATACAGATACA [CACACA_site5481]”: 7.43; “TGTAAAAAATTTAACACACACATATATAAATATGTA [CACACA_site7261]”: 7.08.

As for “CATATACATACACATACACACATACACCCATACACA [CACACA_site8514]”, the “gcPBM binding intensity (ln)” value was determined as 7.33. The same measure for “AGTAAATAATTATATACATGCATTTACTAATATTTA [TGCATGCA_site952]”: 6.94; for “ATATGACGTAGTGGTGTACACACATGGTACCTTTAT [CACACA_site8436]”: 7.23.

For “TTCGTTCTTTTATGCACACTCAACATATAAATTAAA [CACACA_site1209]”, the “gcPBM binding intensity (ln)” value was 8.67. The same measure for “TTATAATATATATGTAGTACTGTTTTTTTCTATTTT [XGTACX_site7749]”: 6.83. The same measure for “TGTACAAATATGTACACACACACATATATATATATA [CACACA_site584]”: 9.35.

Regarding “TATTATTTTAAAAATGCATGTTCATATGAAATAATA [TGCATGCA_site969]”, the “gcPBM binding intensity (ln)” value was determined as 7.25. The same measure for “ATACTATTATATATATGTACATATATATGATGCTCT [XGTACX_site1771]”: 7.22; for “AAGGAGCCTATGAACACACACATGTACATATATTAA [CACACA_site4084]”: 7.03; for “TAATTAAGCATAAATATAATTTTATATTTTATTTCC [XGTACX_negctrl_site321]”: 6.74. Next, “TAACATAGCAATGTTTCACACACAAGAAAAAATACA [CACACA_site8747]”: 7.08; “TGCAGTCTGGAGAAAAGTACATAGTATCTGGTAGCT [XGTACX_site2547]”: 6.89; “ATATATGTATATATTTGTACATATAATATTTTTTAA [XGTACX_site6345]”: 6.85. The same measure for “ATTTGTAATTTATTCAAACACACAATTTGGACCTTT [CACACA_site1062]”: 6.74; for “TATTCACATACAGAAACACACACATATATATAAATT [CACACA_site9232]”: 7.13. Turning to “TTTGTGTGTGCGTGTGCATGTTGTTTTTTTCTATAA [TGCATGCA_site17]”, the “gcPBM binding intensity (ln)” value stood at 7.78.

As for “AATATAATAACTTATTGTACGAAATTATATCACCTT [XGTACX_site7883]”, the “gcPBM binding intensity (ln)” value came to 6.86.
